# The supplement of paper PMC8728848
# This is one part of the list.
# B1: PX14375F-bfa-539-21-539 (Bacteroides fragilis) (protein)
# chain: EDFLQKDPPSSPSQSVFWQKKSDFESALAGTYSVMYSGVFSQIMPCLDGLTDNAIVQHSEGTYGWAKTIAQGDLTPNQGGFVTDIYGNCYKGIARVHILMEQLDQYTGSDISADEKKFMLAQCKALRGYFYSWLYQCYKEVPVVTQSLDLNTMYQPKATRAEVLNRVMTDYDEAISELPDKLYSDSQTSGRFTVSAVKALKARILLFDAYDSNGKAISSKMEEVLTLLQSIKGYSLAARVRDNFISEKQLASPEIMFSVRFLRPNLTHSMDLYYGAWAVLDPTRNMVDAFECTDGKPWGESPLTVRPDESILYGNDDALKKAERAKMFMNRDRRLYESVNHSMMANFVDDGFKDEEVQVNESNNKGPTGFSALKYVQPTDVTPGYSTVSDADIVVLRYAHVLLMIAEAENEAHGATTTALNAINEVRTRSGQPAIEAGISQDDLRERIRNEWRIETCFEGLRYFQLKRWKLMDKRVNGVEDPAYPGYIKVYKPAFEFFPIPQSEIDKAGGVLKQDPAYE
# Tests used:
# Assay in all cases: glycan array binding signal (z-score within array); higher = stronger binding
# Settings in all cases: glycan notation: IUPAC condensed, linker removed
# [1] = biological target: Neu5Ac(a2-3)Gal(b1-4)GlcNAc(b1-6)GalNAc
# Outline: (§1)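 Glycan array data came from 3228 arrays in the Consortium for Functional Glycomics database, and only arrays with an available protein sequence were kept. Glycan names were put into IUPAC-condensed notation, and columns mapping to the same glycan were averaged. The binding signal is a within-array Z-score, averaged across arrays of one protein sequence run at different concentrations or buffers and across linkers. A negative Z-score can be read as non-binding.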
# [2] = biological target: Neu5Ac(a2-3)Gal(b1-4)GlcNAc(b1-6)[Gal(b1-3)]GalNAc
# Outline: as §1
# [3] = biological target: Neu5Ac(a2-3)Gal(b1-4)GlcNAc(b1-6)[Neu5Ac(a2-3)Gal(b1-3)]GalNAc
# Outline: as §1
# [4] = biological target: Neu5Ac(a2-3)Gal(b1-4)GlcNAc6S
# Outline: as §1
# [5] = biological target: Neu5Ac(a2-3)Gal(b1-4)[Fuc(a1-3)]GlcNAc
# Outline: as §1
# [6] = biological target: Neu5Ac(a2-3)Gal(b1-4)[Fuc(a1-3)]GlcNAc(b1-2)Man
# Outline: as §1
# [7] = biological target: Neu5Ac(a2-3)Gal(b1-4)[Fuc(a1-3)]GlcNAc(b1-3)Gal
# Outline: as §1
# [8] = biological target: Neu5Ac(a2-3)Gal(b1-4)[Fuc(a1-3)]GlcNAc(b1-3)Gal(b1-4)GlcNAc
# Outline: as §1
# [9] = biological target: Neu5Ac(a2-3)Gal(b1-4)[Fuc(a1-3)]GlcNAc(b1-3)Gal(b1-4)[Fuc(a1-3)]GlcNAc(b1-3)Gal(b1-4)[Fuc(a1-3)]GlcNAc
# Outline: as §1
# [10] = biological target: Neu5Ac(a2-3)Gal(b1-4)[Fuc(a1-3)]GlcNAc(b1-3)GalNAc
# Outline: as §1
# [11] = biological target: Neu5Ac(a2-3)Gal(b1-4)[Fuc(a1-3)]GlcNAc(b1-6)[Gal(b1-3)]GalNAc
# Outline: as §1
# [12] = biological target: Neu5Ac(a2-3)Gal(b1-4)[Fuc(a1-3)]GlcNAc(b1-6)[Neu5Ac(a2-3)Gal(b1-3)]GalNAc
# Outline: as §1
# [13] = biological target: Neu5Ac(a2-3)Gal(b1-4)[Fuc(a1-3)]GlcNAc6S
# Outline: as §1
# [14] = biological target: Neu5Ac(a2-3)Gal6S(b1-4)GlcNAc
# Outline: as §1
# [15] = biological target: Neu5Ac(a2-3)Gal6S(b1-4)[Fuc(a1-3)]GlcNAc
# Outline: as §1
# Neu5Ac(a2-3)GalNAc = biological target: Neu5Ac(a2-3)GalNAc
# Outline: as §1
# [16] = biological target: Neu5Ac(a2-3)GalNAc(b1-4)GlcNAc
# Outline: as §1
# [17] = biological target: Neu5Ac(a2-3)[GalNAc(b1-4)]Gal(b1-4)Glc
# Outline: as §1
# [18] = biological target: Neu5Ac(a2-3)[GalNAc(b1-4)]Gal(b1-4)GlcNAc
# Outline: as §1
# [19] = biological target: Neu5Ac(a2-3)[GalNAc(b1-4)]Gal(b1-4)GlcNAc(b1-3)GalNAc
# Outline: as §1
# [20] = biological target: Neu5Ac(a2-3)[Neu5Ac(a2-6)]GalNAc
# Outline: as §1
# Neu5Ac(a2-6)Gal = biological target: Neu5Ac(a2-6)Gal
# Outline: as §1
# [21] = biological target: Neu5Ac(a2-6)Gal(b1-3)GlcNAc(b1-3)[Gal(b1-4)GlcNAc(b1-6)]Gal(b1-4)Glc
# Outline: as §1
# Neu5Ac(a2-6)Gal(b1-4)Glc = biological target: Neu5Ac(a2-6)Gal(b1-4)Glc
# Outline: as §1
# [22] = biological target: Neu5Ac(a2-6)Gal(b1-4)GlcNAc
# Outline: as §1
# [23] = biological target: Neu5Ac(a2-6)Gal(b1-4)GlcNAc(b1-2)Man
# Outline: as §1
# [24] = biological target: Neu5Ac(a2-6)Gal(b1-4)GlcNAc(b1-2)Man(a1-3)Man(b1-4)GlcNAc(b1-4)GlcNAc
# Outline: as §1
# [25] = biological target: Neu5Ac(a2-6)Gal(b1-4)GlcNAc(b1-2)Man(a1-3)[Gal(b1-4)GlcNAc(b1-2)Man(a1-6)]Man(b1-4)GlcNAc(b1-4)GlcNAc
# Outline: as §1
# [26] = biological target: Neu5Ac(a2-6)Gal(b1-4)GlcNAc(b1-2)Man(a1-3)[GlcNAc(b1-2)Man(a1-6)]Man(b1-4)GlcNAc(b1-4)GlcNAc
# Outline: as §1
# [27] = biological target: Neu5Ac(a2-6)Gal(b1-4)GlcNAc(b1-2)Man(a1-3)[GlcNAc(b1-4)][Neu5Ac(a2-6)Gal(b1-4)GlcNAc(b1-2)Man(a1-6)]Man(b1-4)GlcNAc(b1-4)GlcNAc
# Outline: as §1
# [28] = biological target: Neu5Ac(a2-6)Gal(b1-4)GlcNAc(b1-2)Man(a1-3)[Man(a1-6)]Man(b1-4)GlcNAc(b1-4)GlcNAc
# Outline: as §1
# [29] = biological target: Neu5Ac(a2-6)Gal(b1-4)GlcNAc(b1-2)Man(a1-3)[Neu5Ac(a2-3)Gal(b1-4)GlcNAc(b1-2)Man(a1-6)]Man(b1-4)GlcNAc(b1-4)GlcNAc
# Outline: as §1
# [30] = biological target: Neu5Ac(a2-6)Gal(b1-4)GlcNAc(b1-2)Man(a1-3)[Neu5Ac(a2-6)Gal(b1-4)GlcNAc(b1-2)Man(a1-6)]Man(b1-4)GlcNAc(b1-4)GlcNAc
# Outline: as §1
# [31] = biological target: Neu5Ac(a2-6)Gal(b1-4)GlcNAc(b1-2)Man(a1-3)[Neu5Ac(a2-6)Gal(b1-4)GlcNAc(b1-2)Man(a1-6)]Man(b1-4)GlcNAc(b1-4)[Fuc(a1-6)]GlcNAc
# Outline: as §1
# [32] = biological target: Neu5Ac(a2-6)Gal(b1-4)GlcNAc(b1-2)Man(a1-6)Man(b1-4)GlcNAc(b1-4)GlcNAc
# Outline: as §1
# [33] = biological target: Neu5Ac(a2-6)Gal(b1-4)GlcNAc(b1-2)Man(a1-6)[Gal(b1-4)GlcNAc(b1-2)Man(a1-3)]Man(b1-4)GlcNAc(b1-4)GlcNAc
# Outline: as §1
# [34] = biological target: Neu5Ac(a2-6)Gal(b1-4)GlcNAc(b1-2)Man(a1-6)[GlcNAc(b1-2)Man(a1-3)]Man(b1-4)GlcNAc(b1-4)GlcNAc
# Outline: as §1
# [35] = biological target: Neu5Ac(a2-6)Gal(b1-4)GlcNAc(b1-2)Man(a1-6)[Man(a1-3)]Man(b1-4)GlcNAc(b1-4)GlcNAc
# Outline: as §1
# [36] = biological target: Neu5Ac(a2-6)Gal(b1-4)GlcNAc(b1-2)[Neu5Ac(a2-6)Gal(b1-4)GlcNAc(b1-4)]Man(a1-3)[GlcNAc(b1-4)][Neu5Ac(a2-6)Gal(b1-4)GlcNAc(b1-2)[Neu5Ac(a2-6)Gal(b1-4)GlcNAc(b1-6)]Man(a1-6)]Man(b1-4)GlcNAc(b1-4)GlcNAc
# Outline: as §1
# [37] = biological target: Neu5Ac(a2-6)Gal(b1-4)GlcNAc(b1-2)[Neu5Ac(a2-6)Gal(b1-4)GlcNAc(b1-4)]Man(a1-3)[GlcNAc(b1-4)][Neu5Ac(a2-6)Gal(b1-4)GlcNAc(b1-4)Man(a1-6)]Man(b1-4)GlcNAc(b1-4)GlcNAc
# Outline: as §1
# [38] = biological target: Neu5Ac(a2-6)Gal(b1-4)GlcNAc(b1-2)[Neu5Ac(a2-6)Gal(b1-4)GlcNAc(b1-6)]Man(a1-6)[Neu5Ac(a2-6)Gal(b1-4)GlcNAc(b1-2)Man(a1-3)][GlcNAc(b1-4)]Man(b1-4)GlcNAc(b1-4)GlcNAc
# Outline: as §1
# [39] = biological target: Neu5Ac(a2-6)Gal(b1-4)GlcNAc(b1-3)Gal(b1-3)GlcNAc
# Outline: as §1
# [40] = biological target: Neu5Ac(a2-6)Gal(b1-4)GlcNAc(b1-3)Gal(b1-4)GlcNAc
# Outline: as §1
# [41] = biological target: Neu5Ac(a2-6)Gal(b1-4)GlcNAc(b1-3)Gal(b1-4)GlcNAc(b1-2)Man(a1-3)[Neu5Ac(a2-6)Gal(b1-4)GlcNAc(b1-3)Gal(b1-4)GlcNAc(b1-2)Man(a1-6)]GalNAc
# Outline: as §1
# [42] = biological target: Neu5Ac(a2-6)Gal(b1-4)GlcNAc(b1-3)Gal(b1-4)GlcNAc(b1-3)Gal(b1-4)GlcNAc
# Outline: as §1
# [43] = biological target: Neu5Ac(a2-6)Gal(b1-4)GlcNAc(b1-3)Gal(b1-4)GlcNAc(b1-3)Gal(b1-4)GlcNAc(b1-2)Man(a1-3)[Neu5Ac(a2-6)Gal(b1-4)GlcNAc(b1-3)Gal(b1-4)GlcNAc(b1-3)Gal(b1-4)GlcNAc(b1-2)Man(a1-6)]GalNAc
# Outline: as §1
binder,measurement,setting,value
B1,glycan array binding signal (z-score),[1],0.053
same,glycan array binding signal (z-score),[2],0.26
same,glycan array binding signal (z-score),[3],0.39
same,glycan array binding signal (z-score),[4],-0.04
same,glycan array binding signal (z-score),[5],-0.368
same,glycan array binding signal (z-score),[6],0.144
same,glycan array binding signal (z-score),[7],-0.611
same,glycan array binding signal (z-score),[8],0.49
same,glycan array binding signal (z-score),[9],0.514
same,glycan array binding signal (z-score),[10],0.097
same,glycan array binding signal (z-score),[11],0.278
same,glycan array binding signal (z-score),[12],0.81
same,glycan array binding signal (z-score),[13],-0.935
same,glycan array binding signal (z-score),[14],-0.023
same,glycan array binding signal (z-score),[15],0.178
same,glycan array binding signal (z-score),Neu5Ac(a2-3)GalNAc,-0.323
same,glycan array binding signal (z-score),[16],-0.258
same,glycan array binding signal (z-score),[17],-0.803
same,glycan array binding signal (z-score),[18],-0.459
same,glycan array binding signal (z-score),[19],0.894
same,glycan array binding signal (z-score),[20],-0.146
same,glycan array binding signal (z-score),Neu5Ac(a2-6)Gal,0.207
same,glycan array binding signal (z-score),[21],-0.214
same,glycan array binding signal (z-score),Neu5Ac(a2-6)Gal(b1-4)Glc,-0.038
same,glycan array binding signal (z-score),[22],0.121
same,glycan array binding signal (z-score),[23],0.113
same,glycan array binding signal (z-score),[24],0.11
same,glycan array binding signal (z-score),[25],-0.808
same,glycan array binding signal (z-score),[26],0.45
same,glycan array binding signal (z-score),[27],0.614
same,glycan array binding signal (z-score),[28],-0.309
same,glycan array binding signal (z-score),[29],-0.082
same,glycan array binding signal (z-score),[30],0.007
same,glycan array binding signal (z-score),[31],0.378
same,glycan array binding signal (z-score),[32],-0.138
same,glycan array binding signal (z-score),[33],-0.223
same,glycan array binding signal (z-score),[34],0.767
same,glycan array binding signal (z-score),[35],-0.518
same,glycan array binding signal (z-score),[36],-1.01
same,glycan array binding signal (z-score),[37],-0.061
same,glycan array binding signal (z-score),[38],-0.074
same,glycan array binding signal (z-score),[39],0.055
same,glycan array binding signal (z-score),[40],0.279
same,glycan array binding signal (z-score),[41],1.22
same,glycan array binding signal (z-score),[42],-0.803
same,glycan array binding signal (z-score),[43],2.67
